Measurements reported in PubChem BioAssay AID504937 (National Center for Advancing Translational Sciences (NCATS), 2011).
Among all 340,000 compounds or so, about 20 (0.006%) were called active. Inconclusive means that the source gave no clear call. Such entries were picked first, then a sample of the others. Calls come from the whole dose curve; as a rule, active = well fitted inhibition curve with a large enough effect; inconclusive = small, poorly fitted or top-dose-only effect; inactive = no such curve, though single readings can be large or run the other way. Potencies beside an inconclusive call are fits to weak or partial responses and may not hold up.
Potency is the fitted concentration of half-maximal effect; tags give direction and shape of the fitted curve.

What follows are molecules tested against Sphingomyelin phosphodiesterase (Homo sapiens) (UniProt P17405) (assay: Inhibitors of Secretory Acid Sphingomyelinase (S-ASM): qHTS). Details: placental ASM, HMU-PC fluorogenic substrate (series up to 57.5 µM), 60 min.
Chain of UniProt P17405 (P17405 whole entry, looked up): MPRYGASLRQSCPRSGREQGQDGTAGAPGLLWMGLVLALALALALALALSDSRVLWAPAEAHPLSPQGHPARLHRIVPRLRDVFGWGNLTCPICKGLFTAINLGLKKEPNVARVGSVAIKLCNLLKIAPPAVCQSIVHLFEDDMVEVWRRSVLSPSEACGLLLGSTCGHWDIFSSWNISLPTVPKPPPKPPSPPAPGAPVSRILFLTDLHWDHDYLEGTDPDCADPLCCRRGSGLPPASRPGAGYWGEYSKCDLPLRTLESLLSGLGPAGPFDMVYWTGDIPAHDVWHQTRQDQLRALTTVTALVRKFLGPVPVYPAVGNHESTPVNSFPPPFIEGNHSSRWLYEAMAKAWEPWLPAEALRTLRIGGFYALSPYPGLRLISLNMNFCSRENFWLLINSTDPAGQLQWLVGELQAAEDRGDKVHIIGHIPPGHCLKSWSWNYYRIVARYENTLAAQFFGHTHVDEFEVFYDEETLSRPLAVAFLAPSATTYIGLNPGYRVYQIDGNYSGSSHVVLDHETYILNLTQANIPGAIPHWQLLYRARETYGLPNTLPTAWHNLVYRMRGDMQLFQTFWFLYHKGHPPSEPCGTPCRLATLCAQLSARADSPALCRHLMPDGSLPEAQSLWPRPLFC
Procedure, shortened: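 Fluorogenic HMU-PC substrate (9 uM final) is turned over by placental ASM in 60 min at 37 C after a 10 min compound preincubation. Reaction ended by alkaline stop (pH 10), with fluorescence read at 386/447 nm.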
In the case of COc1cc(/C=C/C(=O)c2ccc(Cl)s2)cc(OC)c1O, the Potency is reported as inconclusive: 79.4 µM [inhibitor, single point]. With CC1C(=O)OC(c2ccc(Cl)cc2)C(C)(C)C1=O (stereo unspecified) the Potency was “inactive”. With O=C(Nc1cc(Oc2ccc(Cl)cc2)cc([N+](=O)[O-])c1)c1ccco1 the Potency was inconclusive: 50.1 µM [inhibitor, partial curve, poor fit]. For COc1ccc(C2N(c3ccc(C)cc3)CCN2c2ccc(C)cc2)cc1O, the Potency was inconclusive: 70.8 µM [inhibitor, single point]. C[C@@]12C(=O)Nc3ccccc3C(=O)N1[C@H]1c3cc(Br)ccc3OC[C@@H]1[C@@H]2c1ccccc1 was tested, and the Potency was inconclusive: 224 µM [inhibitor, partial curve, poor fit]. For O=C(Nc1cccc(-n2cnnn2)c1)c1ccoc1COc1ccc(Cl)cc1, the Potency was inconclusive: 355 µM [inhibitor, partial curve, poor fit]. With CCCCCn1c(CN2CCN(c3cccc(Cl)c3)CC2)nc2c1c(=O)[nH]c(=O)n2C the Potency was inconclusive: 112 µM [inhibitor, partial curve, poor fit]. For CCOC(=O)c1c(C)[nH]c(N=Nc2ccccc2C)c1C, the Potency was inconclusive: 79.4 µM [inhibitor, single point]. For Cc1cccc(C)c1-n1c(C)cc(/C=N/NC(=O)CSc2ncccn2)c1C, the Potency was inconclusive: 89.1 µM [inhibitor, single point]. CCOc1ccccc1NC(=O)c1nc(S(=O)(=O)Cc2ccccc2)ncc1Cl was tested, and the Potency was “inactive”. In the case of CCOc1ccc(OCC)c(NC(=O)CN(c2ccc(C)cc2)S(=O)(=O)c2c(C)noc2C)c1, the Potency is reported as inconclusive: 316 µM [inhibitor, partial curve, poor fit]. In the case of N#C/C(=C/c1ccc(N2CCOCC2)o1)c1ccc(Br)cc1, the Potency is reported as inconclusive: 89.1 µM [inhibitor, single point]. In the case of CCN1C(=O)[C@@H]2[C@@H](c3ccc(-c4ccccc4)cc3)N3CCC[C@@]3(C(=O)OC)[C@@H]2C1=O, the Potency is reported as “inactive”. CCCOc1ccc(-c2c(C(=O)N/N=C/C3CC=CCC3)nnn2-c2nonc2N)cc1 (stereo unspecified) was tested, and the Potency was “inactive”. In the case of C=C(C)COc1ccc(-c2[nH]ncc2-c2ccc(Br)cc2)c(O)c1, the Potency is reported as inconclusive: 126 µM [inhibitor, partial curve, poor fit]. With O=C(CSc1nc(C2CC2)nc2ccccc12)N1c2ccccc2Sc2ccc(C(F)(F)F)cc21 the Potency was inconclusive: 224 µM [inhibitor, partial curve, poor fit]. CC(C)C[C@H](NC(=O)c1[nH]cnc1C(=O)N[C@@H](C)C(=O)OC(C)(C)C)C(=O)OCc1ccccc1 was tested, and the Potency was “inactive”. With Cn1c(-c2ccc3c(c2)OCO3)cnc1NCc1ccc(Cl)cc1 the Potency was “inactive”. COc1ccc(NS(=O)(=O)c2ccc(Cl)c(NC(=O)c3ccccc3F)c2)cc1 was tested, and the Potency was “inactive”. In the case of COc1ccc(N=C2SC(CC(=O)Nc3ccccc3)C(=O)N2Cc2ccco2)cc1 (stereo unspecified), the Potency is reported as inconclusive: 126 µM [inhibitor, partial curve, poor fit]. In the case of O=C(c1ccccc1)N1CCN(c2ccc([N+](=O)[O-])c(NCC3CCCO3)c2)CC1 (stereo unspecified), the Potency is reported as inconclusive: 251 µM [inhibitor, partial curve, poor fit]. Nc1c(C(=O)c2ccc(Cl)cc2)sc2nsc(SCCN3CCOCC3)c12 was tested, and the Potency was inconclusive: 63.1 µM [inhibitor, partial curve, poor fit]. With CC(C)CN1CCC(CNC(=O)CCc2nnc(Cc3c[nH]c4ccccc34)o2)CC1 the Potency was “inactive”. In the case of COc1ccc(OCCN(C)CC(=O)Nc2c(C)cccc2C)cc1, the Potency is reported as “inactive”. For CSCCC1NC2(C(=O)Nc3c2ccc(Cl)c3C)[C@@H]2C(=O)N(C3CCCC3)C(=O)[C@H]12 (stereo partly specified), the Potency was inconclusive: 224 µM [inhibitor, partial curve, poor fit]. For CC(=O)N(C)c1ccc(OCC(O)Cn2c3ccc(Cl)cc3c3cc(Cl)ccc32)cc1 (stereo unspecified), the Potency was inconclusive: 200 µM [inhibitor, partial curve, poor fit]. With CSc1ccccc1NC(=O)C1=CC(c2ccc(C)cc2)=NS(=O)(=O)N1C the Potency was inconclusive: 251 µM [inhibitor, partial curve, poor fit]. With CCN1CCN(c2oc(COc3ccc(Cl)cc3)nc2C#N)CC1 the Potency was “inactive”. With CCN(CC(=O)NCc1ccc(Cl)cc1)C(=O)COc1ccc(C)cc1C the Potency was “inactive”. O=C1COc2ccc(C(=O)CSc3ccc(Br)cc3)cc2N1 was tested, and the Potency was inconclusive: 112 µM [inhibitor, partial curve, poor fit]. In the case of O=C(NNS(=O)(=O)c1ccccc1[N+](=O)[O-])c1ccc(F)cc1, the Potency is reported as inconclusive: 79.4 µM [inhibitor, single point]. With CCOc1ccc(/C=N/NC(=O)c2cc3c(OC)cc(OC)c(OC)c3[nH]2)cc1 the Potency was inconclusive: 79.4 µM [inhibitor, partial curve, poor fit]. For COc1ccc(C2CC(C(F)(F)F)n3nc(C(=O)Nc4ccc5c(c4)OCO5)cc3N2)cc1 (stereo unspecified), the Potency was inconclusive: 501 µM [inhibitor, partial curve, poor fit]. In the case of OCCCn1c(C2CCCN2c2nc(-c3ccc(F)cc3)cs2)nc2cc(Cl)c(Cl)cc21 (stereo unspecified), the Potency is reported as inconclusive: 79.4 µM [inhibitor, partial curve]. With COc1cccc(NC(=S)NC(=O)Cc2ccc(Cl)cc2)c1 the Potency was inconclusive: 1120 µM [inhibitor, partial curve, poor fit]. In the case of Cc1ccccc1-n1nc2c(c1NC(=O)c1c(-c3ccccc3Cl)noc1C)CSC2, the Potency is reported as “inactive”. Cn1cccc1/C=C1\SC(=S)N(NC(=O)c2ccccc2O)C1=O was tested, and the Potency was inconclusive: 89.1 µM [inhibitor, partial curve, poor fit]. With O=C(/C=C/c1ccc(F)cc1)N1CCCc2ccccc21 the Potency was “inactive”. With CCCCc1n[nH]c2c1/C(=N/O)CC(c1ccccc1)C2 (stereo unspecified) the Potency was inconclusive: 20 µM [inhibitor, partial curve, poor fit]. In the case of CC(C)(C)c1ccc(OCCn2nc(C(=O)O)c3ccccc3c2=O)cc1, the Potency is reported as inconclusive: 89.1 µM [inhibitor, partial curve, poor fit]. For Nc1nnc2c(n1)CCCC2, the Potency was “inactive”. With O=C1Nc2ccccc2/C1=C\c1cccn1-c1ccc(OC(F)(F)F)cc1 the Potency was inconclusive: 100 µM [inhibitor, partial curve]. In the case of O=C(Nc1nc2ccccc2s1)C1CC(=O)N(c2ccc(Br)cc2)C1 (stereo unspecified), the Potency is reported as inconclusive: 79.4 µM [inhibitor, single point]. For O=C1/C(=C\c2ccc(O)c(O)c2)SC(=S)N1Cc1ccccc1, the Potency was inconclusive: 112 µM [inhibitor, partial curve]. In the case of CCCN1C(=S)SC(C)(C)C1/[N+]([O-])=C/c1cccnc1 (stereo unspecified), the Potency is reported as “inactive”. For CC(=O)NCc1cc(-c2nn(C)c(=O)c3ccccc23)ccc1C, the Potency was “inactive”. CC(C)C(O)(C#CCN1CCCCCC1)c1ccccc1 (stereo unspecified) was tested, and the Potency was “inactive”. For O=S(=O)(Oc1ccccc1)c1ccc(Cl)c(Cl)c1, the Potency was “inactive”. For CCN(CC)c1ccc(/C=N/N2CCN(c3ccccn3)CC2)cc1, the Potency was “inactive”. For O=C(c1cccs1)N1CCCC(c2nc3c(nnn3Cc3ccccc3)c(=O)[nH]2)C1 (stereo unspecified), the Potency was “inactive”. In the case of COc1ccc2nc(-n3c(O)c(C4=c5ccccc5=NC4=O)[nH]c3=S)sc2c1, the Potency is reported as inconclusive: 631 µM [inhibitor, partial curve, poor fit]. With COc1cc(N=Nc2cccc(S(N)(=O)=O)c2)c2ccccc2c1N the Potency was inconclusive: 100 µM [inhibitor, partial curve, poor fit]. In the case of O=S(=O)(Nc1nc2ccccc2nc1Cl)c1ccccc1, the Potency is reported as “inactive”. CC(C)(C)C(=O)N1CCN(c2ccc([N+](=O)[O-])c(NCC3CCCO3)c2)CC1 (stereo unspecified) was tested, and the Potency was inconclusive: 100 µM [inhibitor, partial curve, poor fit]. With CC(=O)Nc1ccc(S(=O)(=O)N2CCC(c3nc4c(nnn4Cc4ccccc4Cl)c(=O)[nH]3)CC2)cc1 the Potency was inconclusive: 79.4 µM [inhibitor, single point]. In the case of N#CC1=C(N)NC(SCC(=O)Nc2ccc(Br)cc2)=C(C#N)C12CCCCC2, the Potency is reported as inconclusive: 89.1 µM [inhibitor, single point]. With CCN(CC)CCC(c1ccc(OC)cc1)c1c(O)cc(OC)cc1OC (stereo unspecified) the Potency was “inactive”. COc1cc(/C=C/C(=O)Nc2ccc(OC)c(S(=O)(=O)N3CCOCC3)c2)ccc1OC(F)F was tested, and the Potency was inconclusive: 70.8 µM [inhibitor, partial curve]. With CCN1C(=O)C(CC(=O)Nc2ccc(F)cc2)N(CCc2ccc(OC)cc2)C1=S (stereo unspecified) the Potency was inconclusive: 794 µM [inhibitor, partial curve, poor fit]. O=C(CNc1cccc2ccccc12)N/N=C/C=C/c1ccco1 was tested, and the Potency was inconclusive: 282 µM [inhibitor, partial curve, poor fit]. In the case of CC1CCN(C(=O)CCc2nnc(-c3ccccc3)o2)CC1, the Potency is reported as “inactive”. Cc1cccc(-c2c3c(nc4c2c(=O)n(C)c(=O)n4C)-c2ccccc2C3O)c1 (stereo unspecified) was tested, and the Potency was “inactive”. In the case of CCOc1ccc(/C=N/NC(=O)c2ccccc2NC(=O)c2ccc(OC)cc2)cc1, the Potency is reported as inconclusive: 708 µM [inhibitor, partial curve, poor fit]. Cc1nn(-c2ccccc2)c2c1C(c1ccc([N+](=O)[O-])cc1)N1C(=N2)C(=O)Nc2ccccc21 (stereo unspecified) was tested, and the Potency was inconclusive: 89.1 µM [inhibitor, single point]. C#CCn1c(=NC(=O)c2cccs2)sc2cccc(OCC)c21 was tested, and the Potency was “inactive”. Cc1cccc(NS(=O)(=O)c2ccc3[nH]c(=O)cc(C(=O)OC(C)C(=O)Nc4ccc([N+](=O)[O-])cc4)c3c2)c1 (stereo unspecified) was tested, and the Potency was inconclusive: 112 µM [inhibitor, partial curve, poor fit].
